Experimental data taken from PubChem BioAssay AID2147 (National Center for Advancing Translational Sciences (NCATS), 2009).
About 3,600 (1.6%) of roughly 230,000 compounds were called active. The inconclusive results got no clear call from the source; some entries with a clear call stand among them for comparison. Calls come from the whole dose curve; as a rule, active = well fitted inhibition curve with a large enough effect (not every such curve was filed as active); inconclusive = small, poorly fitted or top-dose-only effect, or another doubt; inactive = no such curve, though single readings can be large or run the other way. A potency beside an inconclusive call is a rough fit, not a confirmed value.
Note: nearly all actives have a fitted effect of over 50% in size.
Potency is the fitted concentration of half-maximal effect; tags give direction and shape of the fitted curve.
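Throughout, for activity change, negative = inhibition: 0% = wells with enzyme and -100% = buffer wells without enzyme.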

The compounds below were run against Lysine-specific demethylase 4E (Homo sapiens) (UniProt B2RXH2) (assay: qHTS Assay for Inhibitors of Human Jumonji Domain Containing 2E (JMJD2E)). Conditions: JMJD2E catalytic domain, FDH-coupled NADH fluorescence (FDH is formaldehyde dehydrogenase); series mostly up to 57.1 µM; activity change, negative = inhibition: at the top concentration.
Chain of UniProt B2RXH2 (B2RXH2 whole entry, looked up, the tested form may be a part): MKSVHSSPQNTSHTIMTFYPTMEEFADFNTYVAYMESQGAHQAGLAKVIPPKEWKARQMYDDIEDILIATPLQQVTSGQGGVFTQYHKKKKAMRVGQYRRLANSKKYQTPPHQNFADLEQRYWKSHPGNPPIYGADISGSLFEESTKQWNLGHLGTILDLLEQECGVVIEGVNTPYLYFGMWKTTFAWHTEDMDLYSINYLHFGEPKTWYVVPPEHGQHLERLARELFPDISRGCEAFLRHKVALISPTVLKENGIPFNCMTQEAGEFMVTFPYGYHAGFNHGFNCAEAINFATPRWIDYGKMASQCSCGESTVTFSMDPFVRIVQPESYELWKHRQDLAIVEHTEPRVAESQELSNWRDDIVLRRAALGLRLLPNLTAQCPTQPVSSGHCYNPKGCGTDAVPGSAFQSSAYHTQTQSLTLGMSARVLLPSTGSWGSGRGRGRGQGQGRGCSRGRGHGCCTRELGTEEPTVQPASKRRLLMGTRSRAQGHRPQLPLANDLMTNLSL
In the case of `NS(=O)(=O)c1ccc(NC(=O)COC(=O)COc2ccc(Br)cc2)cc1`, the “activity change, negative = inhibition” value is reported as inactive: -20.1%. In the case of `CCn1c(Cc2ccccc2)nnc1SCC(=O)Nc1ccccc1N1CCOCC1`, the “activity change, negative = inhibition” value is reported as inactive: 2.31%. For `O=C(NNC(=O)c1ccncc1)Nc1ccc([N+](=O)[O-])cc1`, the “activity change, negative = inhibition” value was inactive: -14.9%. For `CCCN(Cc1cc2cc(C)ccc2[nH]c1=O)S(C)(=O)=O`, the Potency was inconclusive: 35.5 µM [inhibitor, single point]. `COc1ccc(CCN(C)Cc2nc(Cc3ccc(OC)c(OC)c3)no2)cc1OC` was tested, and the Potency was inconclusive: 39.8 µM [inhibitor, single point]. In the case of `Nc1cccc2c1C(=O)N(Cc1cccc(Cl)c1)C2=O`, the Potency is reported as inconclusive: 35.5 µM [inhibitor, single point]. `COc1ccc(-c2oc3ncnc(NCCN4CCOCC4)c3c2-c2ccc(OC)cc2)cc1` was tested, and the Potency was inconclusive: 3.16 µM [inhibitor, partial curve]. `Cc1ccc(CN2CCN(CC(=O)NCCCN3CCN(c4ccc(F)cc4)CC3)C2=O)cc1` was tested, and the Potency was inconclusive: 39.8 µM [inhibitor, single point]. In the case of `c1ccc(Oc2c3ccccc3nc3ccccc23)cc1`, the Potency is reported as inconclusive: 22.4 µM [inhibitor, partial curve]. With `COCCN(C(=O)CCc1ccccc1OC)c1nnc(-c2cccnc2)s1` the Potency was inconclusive: 25.1 µM [inhibitor, single point]. `COC(=O)c1[nH]c2ccc(Cl)cc2c1NC(=O)C1CC1` was tested, and the Potency was inconclusive: 28.2 µM [inhibitor, partial curve]. In the case of `N#Cc1cnn2c(-c3ccc(Cl)cc3Cl)ccnc12`, the Potency is reported as inconclusive: 28.2 µM [inhibitor, partial curve]. In the case of `CN(C)c1nc2c(c(=O)[nH]c(=O)n2C)n1Cc1ccccc1Br`, the “activity change, negative = inhibition” value is reported as inactive: 7.7%. `[N-]=[N+]=CC(=O)CCCN1C(=O)c2ccccc2C1=O` was tested, and the “activity change, negative = inhibition” value was inactive: -6.19%. `O=C(NN=C1CCCC1)c1sc2ccccc2c1Cl` was tested, and the “activity change, negative = inhibition” value was inactive: 28.2%. With `Nc1c(S(=O)(=O)c2cccs2)c2nc3ccccc3nc2n1Cc1ccccc1` the Potency was inconclusive: 35.5 µM [inhibitor, partial curve]. For `COC(=O)c1cc(CN2CCN(c3ccccc3C)CC2)ccc1O`, the Potency was inconclusive: 39.8 µM [inhibitor, single point]. In the case of `CCOC(=O)C1CCN(C(=O)Cc2c(C(=O)O)[nH]c3ccccc23)CC1`, the Potency is reported as inconclusive: 28.2 µM [inhibitor, single point]. With `C=CCn1c(-c2cccn(Cc3ccc(Cl)cc3)c2=O)n[nH]c1=S` the Potency was inconclusive: 39.8 µM [inhibitor, single point]. `COC(=O)c1ccc(C(=O)OC)c(NC(=S)N2CCC(N3CCCCC3)CC2)c1` was tested, and the Potency was inconclusive: 15.8 µM [inhibitor, partial curve]. With `CCCC[C@H](CC)CN1CN(C[C@@H](CC)CCCC)CC(C)(N)C1` the “activity change, negative = inhibition” value was inactive: 0.21% [at 25.5 µM]. `CCCc1cc(=O)n2[nH]c(-c3ccc(Br)cc3)cc2n1` was tested, and the Potency was inconclusive: 28.2 µM [inhibitor, partial curve]. For `Cc1ccc(NC(=O)CSc2nc(O)c(Cc3ccccc3)c(=O)n2-c2ccccc2)cc1`, the Potency was inconclusive: 15.8 µM [inhibitor, partial curve]. For `COc1cc(/C=N/NC(=O)c2c(C)nnn2-c2nonc2N)ccc1O`, the Potency was inconclusive: 39.8 µM [inhibitor, single point]. For `CCCN(CCC)CCNC(=O)c1cc2c(=O)n(CC)c3ccccc3c2s1`, the Potency was inconclusive: 28.2 µM [inhibitor, partial curve]. With `Cc1cc2c(sc3c(C)ccc(C)c32)c(C)n1` the Potency was inconclusive: 25.1 µM [inhibitor, single point]. For `CCOC(=O)c1ccccc1NC(=O)/C=C/C(=O)O`, the “activity change, negative = inhibition” value was inactive: -4.15%. In the case of `CCCNc1c(N)c(=O)oc2ccccc12`, the Potency is reported as inconclusive: 35.5 µM [inhibitor, single point]. In the case of `Cc1ccc(NC(=O)CC2Nc3ccccc3NC2=O)cc1Cl` (stereo not given), the Potency is reported as inconclusive: 22.4 µM [inhibitor, partial curve]. In the case of `Cc1ccc2cc(CCNC(=O)c3cc4ccccc4o3)c(=O)[nH]c2c1C`, the Potency is reported as inconclusive: 28.2 µM [inhibitor, single point]. With `COc1ccc(C(=O)Nc2cccc(OC(=O)c3ccc(C)c(C)c3)c2)cc1` the Potency was inconclusive: 39.8 µM [inhibitor, single point]. In the case of `O=C(Nc1cccc(Cl)c1)Nc1nnc(-c2ccncc2)s1`, the Potency is reported as inconclusive: 14.1 µM [inhibitor, partial curve]. `CCCn1nc2cc(C(=O)NCCc3ccc(C)cc3)ccc2c1OCC` was tested, and the Potency was inconclusive: 31.6 µM [inhibitor, partial curve]. In the case of `Cn1c2ccccc2c2cc(C(=O)N3CCN(CCO)CC3)sc21`, the Potency is reported as inconclusive: 39.8 µM [inhibitor, single point]. In the case of `COc1ccc(C(=O)n2c(-c3ccco3)nc3ccccc32)cc1`, the Potency is reported as inconclusive: 39.8 µM [inhibitor, single point]. For `O=C1NC(=O)C2C1C(c1cccs1)NN2Cc1ccccc1` (stereo not given), the Potency was inconclusive: 7.94 µM [inhibitor, full curve]. In the case of `CC(NS(=O)(=O)c1ccc(Br)cc1)C(=O)NCCc1ccccc1` (stereo not given), the “activity change, negative = inhibition” value is reported as inactive: -3.45%. `O=C1CC(N2CCN(Cc3ccccc3)CC2)C(=O)N1c1ccc2c(c1)OCCO2` (stereo not given) was tested, and the “activity change, negative = inhibition” value was inactive: 2.35%. With `COc1ccc(CC2(CO)CCN(Cc3cccc(OC)c3OC)CC2)cc1` the “activity change, negative = inhibition” value was inactive: -6.49%. With `Cc1cccn2c(=O)c(C=O)c(N3CCCCC3)nc12` the Potency was inconclusive: 35.5 µM [inhibitor, single point]. For `COc1ccc(CC(=O)c2ccc(O)cc2O)cc1`, the Potency was “inactive”. `COC(=O)c1ccc(NC(=O)C2C3CCC(C3)C2C(=O)O)cc1` (stereo not given) was tested, and the “activity change, negative = inhibition” value was inactive: 0.486%. In the case of `COc1cc2cc(CN(C(=O)Nc3ccccc3)C3CCCC3)c(=O)[nH]c2cc1OC`, the Potency is reported as inconclusive: 25.1 µM [inhibitor, partial curve]. In the case of `COc1cccc(-c2cc(C(F)(F)F)n3nc(C(=O)N4CCCCC4c4cccnc4)cc3n2)c1` (stereo not given), the Potency is reported as inconclusive: 39.8 µM [inhibitor, single point]. With `COCCCn1c2nc3ccccc3nc2c2c(=O)n(CC3CCCO3)cnc21` (stereo not given) the Potency was inconclusive: 3.55 µM [inhibitor, full curve].
